According to paper PMC9983901:
No constants are given. Whether binding was seen depends on the method and setting. For some assays here: Binding seen in cells or lysates may run through a third protein. Some results given as binding are weak or reduced against the parent protein; the word gives no strength. Sequences can lack the tags named with a protein.

T1: GRAS-1::GFP (C. elegans) (UniProt Q93654)
T1 sequence: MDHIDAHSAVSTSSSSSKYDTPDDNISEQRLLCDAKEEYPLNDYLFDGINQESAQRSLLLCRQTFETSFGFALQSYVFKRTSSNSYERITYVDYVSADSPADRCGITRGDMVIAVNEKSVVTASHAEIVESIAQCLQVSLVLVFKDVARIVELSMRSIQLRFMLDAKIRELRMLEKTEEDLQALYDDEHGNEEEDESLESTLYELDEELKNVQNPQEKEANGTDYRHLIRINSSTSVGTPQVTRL

T2: SYP-3 full length (Gal4 DNA binding domain fusion) (C. elegans) (UniProt O62238)
T2 sequence: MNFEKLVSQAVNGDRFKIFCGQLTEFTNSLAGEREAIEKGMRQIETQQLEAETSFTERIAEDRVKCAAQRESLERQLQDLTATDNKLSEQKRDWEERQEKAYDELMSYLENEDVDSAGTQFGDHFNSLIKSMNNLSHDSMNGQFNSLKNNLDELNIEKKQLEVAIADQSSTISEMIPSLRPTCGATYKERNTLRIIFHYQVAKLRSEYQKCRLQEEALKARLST

T3: SYP-4 full length (Gal4 DNA binding domain fusion) (C. elegans) (UniProt Q9N5K3)
T3 sequence: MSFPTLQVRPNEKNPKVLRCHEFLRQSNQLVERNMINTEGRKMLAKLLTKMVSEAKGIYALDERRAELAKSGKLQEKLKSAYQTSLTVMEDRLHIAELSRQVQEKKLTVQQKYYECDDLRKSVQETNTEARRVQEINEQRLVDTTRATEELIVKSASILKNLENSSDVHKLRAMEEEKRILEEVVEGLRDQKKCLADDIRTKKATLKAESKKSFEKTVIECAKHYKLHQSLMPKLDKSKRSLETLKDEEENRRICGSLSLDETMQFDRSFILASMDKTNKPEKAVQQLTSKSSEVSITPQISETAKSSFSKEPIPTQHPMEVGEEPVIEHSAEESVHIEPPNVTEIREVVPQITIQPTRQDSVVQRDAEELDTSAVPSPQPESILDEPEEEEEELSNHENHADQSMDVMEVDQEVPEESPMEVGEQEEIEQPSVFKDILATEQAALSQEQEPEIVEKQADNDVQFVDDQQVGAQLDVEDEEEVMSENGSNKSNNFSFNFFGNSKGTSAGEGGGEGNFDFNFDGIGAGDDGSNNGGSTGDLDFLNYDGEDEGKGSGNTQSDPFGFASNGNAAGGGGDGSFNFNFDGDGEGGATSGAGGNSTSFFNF


How the values were obtained:
[1] = target: T1, GRAS-1::GFP (C. elegans); test: co-IP; immunoprecipitation with a GFP antibody from whole worm lysates (gras-1::gfp, syp-2::gfp, wild type); Western blot with anti-SYP-3
[2] = target: T2, SYP-3 full length (Gal4 DNA binding domain fusion) (C. elegans); test: two-hybrid; GRAS-1 constructs in pVV213 (activation domain), SYP constructs in pVV212 (Gal4 DNA binding domain); strains mated on YPD, selected on SC Leu- Trp-
[3] = target: T3, SYP-4 full length (Gal4 DNA binding domain fusion) (C. elegans); test: as above

| Binder | binding [1] | binding [2] | binding [3] |
| --- | --- | --- | --- |
| SYP-3 (protein, UniProt O62238 1-224) MNFEKLVSQAVNGDRFKIFCGQLTEFTNSLAGEREAIEKGMRQIETQQLEAETSFTERIAEDRVKCAAQRESLERQLQDLTATDNKLSEQKRDWEERQEKAYDELMSYLENEDVDSAGTQFGDHFNSLIKSMNNLSHDSMNGQFNSLKNNLDELNIEKKQLEVAIADQSSTISEMIPSLRPTCGATYKERNTLRIIFHYQVAKLRSEYQKCRLQEEALKARLST | binds | – | – |
| GRAS-1 full length (activation domain fusion) (protein, UniProt Q93654 1-245) MDHIDAHSAVSTSSSSSKYDTPDDNISEQRLLCDAKEEYPLNDYLFDGINQESAQRSLLLCRQTFETSFGFALQSYVFKRTSSNSYERITYVDYVSADSPADRCGITRGDMVIAVNEKSVVTASHAEIVESIAQCLQVSLVLVFKDVARIVELSMRSIQLRFMLDAKIRELRMLEKTEEDLQALYDDEHGNEEEDESLESTLYELDEELKNVQNPQEKEANGTDYRHLIRINSSTSVGTPQVTRL | – | binds | no binding |
| GRAS-1 ΔCt^1-163 (domain or fragment, UniProt Q93654 1-163) MDHIDAHSAVSTSSSSSKYDTPDDNISEQRLLCDAKEEYPLNDYLFDGINQESAQRSLLLCRQTFETSFGFALQSYVFKRTSSNSYERITYVDYVSADSPADRCGITRGDMVIAVNEKSVVTASHAEIVESIAQCLQVSLVLVFKDVARIVELSMRSIQLRFM | – | binds | – |
| GRAS-1 ΔNt^69-245 (domain or fragment, UniProt Q93654 69-245) FGFALQSYVFKRTSSNSYERITYVDYVSADSPADRCGITRGDMVIAVNEKSVVTASHAEIVESIAQCLQVSLVLVFKDVARIVELSMRSIQLRFMLDAKIRELRMLEKTEEDLQALYDDEHGNEEEDESLESTLYELDEELKNVQNPQEKEANGTDYRHLIRINSSTSVGTPQVTRL | – | no binding | – |
